In the supplement of paper PMC10326071:
± gives the standard deviation of the averaged measurements. The list shows a part of the results. Repeats are few or missing, and single values can be far off.

test system: SARS-CoV-2 nsp3 SARS-unique domain core (SUD-core, nsp3 residues 413-676); test: apparent dissociation constant Kd (single-concentration BLI fit); higher = weaker binding; settings: 100 µM; 25 °C

| Compound | apparent dissociation constant Kd [µM] |
| --- | --- |
| O[C@@H]1CO[C@H]2[C@@H]1OC[C@H]2Oc1nc2nc(-c3ccc(-c4ccccc4)cc3)c(Cl)cc2[nH]1 | 2190 |
| CC(=O)Nc1ccn([C@@H]2O[C@H](CO)[C@@H](O)[C@H]2O)c(=O)n1 | 211 |
| Cc1c[nH]c(/C=C2\C(=O)Nc3ccccc32)c1CCC(=O)O | 565 |
| Cc1cc2c(F)c(Oc3ncnn4cc(OC[C@@H](C)OC(=O)[C@H](C)N)c(C)c34)ccc2[nH]1 | 7530 |
| CCCCCCCCCCCCCCCCCCCCCC(=O)Nc1ccn([C@@H]2O[C@H](CO)[C@@H](O)[C@@H]2O)c(=O)n1 | 2540 |
| CN(C)c1ncnc2c1ncn2[C@@H]1O[C@H](CO)[C@@H](N)[C@H]1O | 65.2 |
| C=CS(=O)(=O)c1ccc(Nc2nc(OCC3CCCCC3)c3[nH]cnc3n2)cc1 | 799 |
| C[C@H]1O[C@@H](n2cnc3c(N)ncnc32)[C@H](O)[C@@H]1O | 2100 ± 1700 |
| CCCCCCCCCCCCCCCCOP(=O)([O-])OCC[N+](C)(C)C | 370 |
